# Results: PubChem BioAssay (Tox21)
# The inconclusive results got no clear call from the source; some entries with a clear call stand among them for comparison. For some of these results: Potencies of inconclusive entries are left out as doubtful fits. Activity calls are given as the source filed them. Unless noted, the call rests on the fitted dose curve; in most records, active means well fitted curve in the direction sought with a large enough effect in the repeat runs; inconclusive means weak or mixed curves; inactive means no such curve, though single readings can be large; an effect the other way counts as inactive or inconclusive.
# Experiments:
# [1] = qHTS assay for small molecule agonists of the antioxidant response element (ARE) signaling pathway (AID 743202; active means well fitted activation curve with a large enough effect in the signal ratio in the repeat runs, not every such curve was filed as active; inconclusive means weak or mixed curves, or effect the other way; inactive means no such curve, though single readings can be large or run the other way; the % refers to the signal ratio; further: potency means the concentration at half of the fitted maximal effect); conditions: HepG2 ARE-bla reporter, beta-lactamase FRET, 16 h; activation: at 73.3 µM (top of the series) unless noted
# Method in brief: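 Following a 16 h, 37 C exposure of reporter HepG2 cells (ARE-driven beta-lactamase, 2,000 cells/well) to compounds, FRET substrate was applied for 2 h at room temperature and fluorescence intensity recorded.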
# [2] = target: Vitamin D3 receptor (Homo sapiens) (UniProt P11473); test: qHTS assay to identify small molecule agonists of the vitamin D receptor (VDR) signaling pathway (AID 743222; calls by dose curve; further: potency means the concentration at half of the fitted maximal effect; on activation: on the % scale 0 is the no-effect control and ±100 the full control effect); conditions: HEK293T VDR-UAS-bla, beta-lactamase FRET ratio, 16 h; activation: at 63.5 µM (top of the series) unless noted
# Sequence of UniProt P11473 (P11473 whole entry, looked up): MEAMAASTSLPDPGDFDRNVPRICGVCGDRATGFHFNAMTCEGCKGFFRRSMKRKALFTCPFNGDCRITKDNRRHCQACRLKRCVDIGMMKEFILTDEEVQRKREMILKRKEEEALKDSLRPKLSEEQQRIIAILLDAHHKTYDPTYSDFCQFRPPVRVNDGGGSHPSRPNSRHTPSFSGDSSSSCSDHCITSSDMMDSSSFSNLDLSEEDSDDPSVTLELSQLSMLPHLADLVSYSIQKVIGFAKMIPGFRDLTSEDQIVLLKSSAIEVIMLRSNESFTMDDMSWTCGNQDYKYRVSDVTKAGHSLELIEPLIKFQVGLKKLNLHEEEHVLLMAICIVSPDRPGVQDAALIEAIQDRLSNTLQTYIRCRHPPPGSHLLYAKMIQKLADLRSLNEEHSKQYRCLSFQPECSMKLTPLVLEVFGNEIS
# Method in brief: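 Following 4 h attachment at 37C, VDR-bla cells (2,000 per well) received DMSO-dissolved compounds or controls. After 16 h incubation, LiveBLAzer B/G FRET substrate was added and fluorescence read 2 h later at room temperature.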
# [3] = target: Nuclear receptor ROR-gamma (Homo sapiens) (UniProt P51449); test: qHTS assay to identify small molecule antagonists of the retinoid-related orphan receptor gamma (ROR-gamma) signaling pathway (AID 1159521; further: nearly all actives have a fitted effect of over 50% in size; further: potency means the concentration at half of the fitted maximal effect;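 on activity change, negative = inhibition: CHO cells with doxycycline inducible ROR-gamma driving an RORE luciferase reporter; top concentration of the series differs between compounds; on the % scale 0 is the no-effect control and ±100 the full control effect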)
# Method in brief: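 Tet-on ROR-gamma CHO cells with ROR response element-luciferase reporter; compounds added 2 hr before 1 uM doxycycline induction, then 16 hr at 37 C. Antagonism scored as decreased ONE-Glo luminescence.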
# [4] = qHTS assay to identify small molecule antagonists of the peroxisome proliferator-activated receptor delta (PPARd) signaling pathway - cell viability counter screen (AID 743213); conditions: PPARd-bla HEK293H viability, CellTiter-Glo luminescence, 17 h; viability change, negative = cytotoxic: at 62 µM (top of the series) unless noted; further: nearly all actives have a fitted effect of over 50% in size; further: potency means the concentration at half of the fitted maximal effect
# Method in brief: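 HEK293H cells with the PPARd UAS-bla reporter, co-treated 17 h at 37 C with compounds and L165041 (300 nM final), were lysed with CellTiter-Glo. Luminescence indicated viable cell content.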
# [5] = qHTS assay to identify small molecule antagonists of the vitamin D receptor (VDR) signaling pathway - cell viability counter screen (AID 743225); conditions: VDR-bla HEK293T viability, CellTiter-Glo luminescence, 16 h; viability change, negative = cytotoxic: at 61 µM (top of the series) unless noted; further: potency means the concentration at half of the fitted maximal effect; nearly all actives have a fitted effect of over 50% in size
# Method in brief: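 VDR-UAS-bla HEK 293T cells were plated and incubated 4 h at 37C, then dosed with compound plus 3 nM (final) 1-alpha,25-dihydroxyvitamin D3 for 16 h. After the 2 h beta-lactamase read, viability in the same wells was read as CellTiter-Glo luminescence after 30 min at room temperature.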
# [6] = target: Bile acid receptor (Homo sapiens) (UniProt Q96RI1); test: qHTS assay to identify small molecule antagonists of the farnesoid-X-receptor (FXR) signaling pathway (AID 743217; active means well fitted inhibition curve with a large enough effect in the signal ratio in the repeat runs, not every such curve was filed as active; inconclusive means weak or mixed curves, or effect the other way; inactive means no such curve, though single readings can be large or run the other way; the % refers to the signal ratio; further: on the % scale 0 is the no-effect control and ±100 the full control effect); conditions: HEK293T FXR-UAS-bla, beta-lactamase ratio, CDCA-stimulated, 16 h; activity change, negative = inhibition: at 62.6 µM (top of the series) unless noted
# Sequence of UniProt Q96RI1 (Q96RI1 whole entry, looked up): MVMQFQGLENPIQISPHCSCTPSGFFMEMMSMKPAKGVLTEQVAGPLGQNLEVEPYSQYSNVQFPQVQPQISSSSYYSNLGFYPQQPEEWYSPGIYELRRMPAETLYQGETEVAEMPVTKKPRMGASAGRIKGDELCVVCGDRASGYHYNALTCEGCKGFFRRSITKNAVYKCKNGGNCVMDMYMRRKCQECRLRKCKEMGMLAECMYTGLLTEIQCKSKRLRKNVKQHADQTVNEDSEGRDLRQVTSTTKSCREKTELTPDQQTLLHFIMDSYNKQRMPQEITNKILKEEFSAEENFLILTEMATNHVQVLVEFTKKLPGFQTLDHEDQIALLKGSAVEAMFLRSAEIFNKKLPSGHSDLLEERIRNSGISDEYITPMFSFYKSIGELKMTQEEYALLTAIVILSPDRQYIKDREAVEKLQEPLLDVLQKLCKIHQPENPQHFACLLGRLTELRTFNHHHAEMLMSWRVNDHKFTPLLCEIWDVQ
# Method in brief: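 FRET fluorescence after 2 h room-temperature LiveBLAzer loading gives the readout. Prior step: FXR-bla HEK 293T cells, seeded and incubated 5 h, received test compounds plus 50 uM final CDCA for 16 h at 37 °C.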
# [7] = qHTS assay to identify small molecule antagonists of the farnesoid-X-receptor (FXR) signaling pathway - cell viability counter screen (AID 743221; active means well fitted cell-killing curve with a large enough effect in the repeat runs, not every such curve was filed as active; inconclusive means weak or mixed curves, or effect the other way; inactive means no such curve, though single readings can be large or run the other way; further: on the % scale 0 is the no-effect control and ±100 the full control effect; nearly all actives have a fitted effect of over 50% in size); conditions: FXR-bla HEK293T viability, CellTiter-Glo luminescence, 16 h; activity change, negative = cytotoxicity: at 62.6 µM (top of the series) unless noted
# Method in brief: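 GeneBLAzer FXR-UAS-bla HEK 293T cells, compound plus chenodeoxycholic acid (50 uM final), 16 h at 37 C. CellTiter-Glo added to the same wells after the beta-lactamase read; luminescence read after 30 min at room temperature as viability.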
# [8] = qHTS assay for small molecule activators of the heat shock response signaling pathway - cell viability counter screen (AID 743209); conditions: HSE-bla HeLa viability, CellTiter-Glo luminescence, 5 h; activity change, negative = cytotoxicity: at 62.6 µM (top of the series)
# Method in brief: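 Same-well multiplex: after 2.5 h room-temperature incubation with LiveBLAzer B/G substrate and fluorescence reading, CellTiter-Glo reagent was added to HSE-bla HeLa cells that had received compound for 5 h at 37 C; luminescence read after 30 min.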
# [9] = qHTS assay for small molecule activators of the heat shock response signaling pathway (AID 743210; active means well fitted activation curve with a large enough effect in the signal ratio in the repeat runs, with a control signal flat, not every such curve was filed as active; inconclusive means weak or mixed curves; the % refers to the signal ratio; further: potency means the concentration at half of the fitted maximal effect); conditions: HeLa HSE-bla reporter, beta-lactamase ratio, 5 h; activation: at 62.6 µM (top of the series) unless noted
# Method in brief: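 Heat shock element–beta-lactamase HeLa reporter cells; qHTS with compounds for 5 h at 37 C; detection by FRET substrate fluorescence after 2.5 h at RT.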
# [10] = qHTS assay to identify small molecule agonists of the peroxisome proliferator-activated receptor delta (PPARd) signaling pathway - cell viability counter screen (AID 743211); conditions: PPARd-bla HEK293H viability, CellTiter-Glo luminescence, 17 h; activity change, negative = cytotoxicity: at 62.6 µM (top of the series); further: potency means the concentration at half of the fitted maximal effect; nearly all actives have a fitted effect of over 55% in size
# Method in brief: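 PPARd-bla HEK293H cells (3000/well) were pre-incubated 5 h at 37 C, then exposed to compound for 17 h at 37 C. After 2 h with LiveBLAzer substrate, CellTiter-Glo was added to the same wells; luminescence read after 30 min at room temperature.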
# [11] = target: Peroxisome proliferator-activated receptor delta (Homo sapiens) (UniProt Q03181); test: qHTS assay to identify small molecule agonists of the peroxisome proliferator-activated receptor delta (PPARd) signaling pathway (AID 743212; calls by dose curve;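 further: HEK293H cells with PPARd UAS beta-lactamase reporter GeneBLAzer system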; further: potency means the concentration at half of the fitted maximal effect); conditions: HEK293H PPARd-UAS-bla, beta-lactamase FRET ratio, 17 h; activation: at 62.6 µM (top of the series) unless noted
# Sequence of UniProt Q03181 (Q03181 whole entry, looked up): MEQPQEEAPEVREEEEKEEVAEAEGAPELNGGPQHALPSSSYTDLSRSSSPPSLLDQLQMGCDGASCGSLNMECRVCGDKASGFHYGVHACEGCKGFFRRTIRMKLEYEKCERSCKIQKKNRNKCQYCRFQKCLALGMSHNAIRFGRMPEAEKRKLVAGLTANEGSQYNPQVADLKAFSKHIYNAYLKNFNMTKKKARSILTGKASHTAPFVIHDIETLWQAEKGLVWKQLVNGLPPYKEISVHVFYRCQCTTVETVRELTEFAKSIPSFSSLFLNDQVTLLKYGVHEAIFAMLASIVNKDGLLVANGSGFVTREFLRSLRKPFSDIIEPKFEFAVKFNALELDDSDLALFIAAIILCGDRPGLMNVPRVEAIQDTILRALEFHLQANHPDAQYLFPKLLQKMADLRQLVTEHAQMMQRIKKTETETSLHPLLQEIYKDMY
# Method in brief: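 Beta-lactamase reporter read by fluorescence (LiveBLAzer B/G FRET, 2 h, room temperature). Test agents, in DMSO, incubated at 37 C with PPARd-bla HEK293H cells.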
# [12] = qHTS assay to identify small molecule agonists of the farnesoid-X-receptor (FXR) signaling pathway - cell viability counter screen (AID 743218); conditions: FXR-bla HEK293T viability, CellTiter-Glo luminescence, 16 h; viability change, negative = cytotoxic: at 62.6 µM (top of the series) unless noted; further: potency means the concentration at half of the fitted maximal effect; nearly all actives have a fitted effect of over 45% in size
# Method in brief: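 Readout: CellTiter-Glo luminescence, 30 min RT, multiplexed after the FXR-bla FRET reading. HEK 293T FXR-UAS-bla cells received compound 5 h post-plating and were incubated 16 h at 37 C.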
# [13] = target: Bile acid receptor (Homo sapiens) (UniProt Q96RI1); test: qHTS assay to identify small molecule agonists of the farnesoid-X-receptor (FXR) signaling pathway (AID 743220; active means well fitted activation curve with a large enough effect in the signal ratio in the repeat runs, not every such curve was filed as active; inconclusive means weak or mixed curves, or effect the other way; the % refers to the signal ratio; further: on the % scale 0 is the no-effect control and ±100 the full control effect); conditions: HEK293T FXR-UAS-bla, beta-lactamase FRET ratio, 16 h; activation: at 62.6 µM (top of the series)
# Method in brief: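 FXR-UAS-bla HEK 293T cells carrying a UAS-driven beta-lactamase reporter were plated for 5 h at 37C/5% CO2, then exposed to DMSO-dissolved Tox21 10K compounds for 16 h at 37C. A LiveBLAzer B/G FRET substrate was loaded for 2 h at room temperature before fluorescence reading.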
# [14] = qHTS assay to identify small molecule agonists of the vitamin D receptor (VDR) signaling pathway - cell viability counter screen (AID 743224); conditions: VDR-bla HEK293T viability, CellTiter-Glo luminescence, 16 h; activity change, negative = cytotoxicity: at 62.6 µM (top of the series); further: nearly all actives have a fitted effect of over 50% in size; further: potency means the concentration at half of the fitted maximal effect
# Method in brief: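 In parallel with the bla FRET readout, cytotoxicity toward VDR-bla cells after 16 h compound exposure was assessed by CellTiter-Glo, with luminescence recorded after a 30 min room-temperature incubation.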
# [15] = target: Vitamin D3 receptor (Homo sapiens) (UniProt P11473); test: qHTS assay to identify small molecule antagonists of the vitamin D receptor (VDR) signaling pathway (AID 743223; active means well fitted inhibition curve with a large enough effect in the signal ratio in the repeat runs, not every such curve was filed as active; inconclusive means weak or mixed curves, or effect the other way; inactive means no such curve, though single readings can be large or run the other way; the % refers to the signal ratio; further: potency means the concentration at half of the fitted maximal effect); conditions: VDR-UAS-bla HEK293T, beta-lactamase FRET ratio, 16 h; activity change, negative = inhibition: at 61 µM (top of the series) unless noted
# Method in brief: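 VDR-bla cells were treated with compound plus 3 nM final 1alpha,25-dihydroxyvitamin D3 for 16 h at 37C. Beta-lactamase reporter read by B/G FRET substrate fluorescence after 2 h at room temperature. qHTS format.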
# Tags describe the fitted curve by direction and shape or compound fluorescence and quenching.
smiles,measurement,setting,value
O=C1OC(CN2CCOCC2)CN1/N=C/c1ccc([N+](=O)[O-])o1 (configuration not stated),Potency,[1],active: 29.8 µM
same,Potency,[2],inactive
same,Potency,[3],"inconclusive [inhibitor, single point]"
N[C@H](Cc1c[nH]c2ccccc12)C(=O)O,Potency,[1],"inconclusive [rising, single point]"
same,Potency,[4],"inconclusive [cytotoxic, single point]"
same,Potency,[5],"inconclusive [rising, full curve]"
same,Potency,[3],inactive
CCCCC(CC)COC(=O)CC#N (configuration not stated),Potency,[1],inactive
same,Potency,[6],inactive
same,Potency,[7],inactive
same,Potency,[3],inactive
[O-][n+]1cccc(/C(Cl)=N/OC[C@@H](O)CN2CCCCC2)c1,Potency,[8],inactive
same,Potency,[3],inactive
COc1cc2c(cc1N)oc1ccccc12,Potency,[9],inconclusive [activator]
same,Potency,[10],"inconclusive [cytotoxic, partial curve, poor fit]"
same,Potency,[11],inconclusive
same,Potency,[4],"inconclusive [cytotoxic, full curve, poor fit]"
same,Potency,[12],"inconclusive [rising, full curve, poor fit]"
same,Potency,[13],inactive
same,Potency,[2],inconclusive [single point]
same,Potency,[14],"inconclusive [cytotoxic, single point]"
same,Potency,[3],inactive
CN(C)[C@@H]1C(=O)C(C(=O)NCN2CCCC2)=C(O)[C@@]2(O)C(=O)C3=C(O)c4c(O)cccc4[C@@](C)(O)C3C[C@@H]12 (some centres not stated),Potency,[9],inactive
same,Potency,[2],inactive
same,"activity change, negative = inhibition",[15],inconclusive: -5.92%
same,Potency,[3],inactive
O=C(NCCCN1CCOCC1)c1ccc(Cl)cc1,Potency,[11],inactive
same,Potency,[4],inactive
same,Potency,[2],inactive
same,Potency,[3],"inconclusive [inhibitor, partial curve, poor fit]"
COC(=O)[C@H]1[C@H]2C[C@@H]3c4[nH]c5cc(OC)ccc5c4CCN3C[C@H]2C[C@@H](OC(=O)COc2ccc(OC)cc2)[C@@H]1OC,Potency,[9],inconclusive
same,Potency,[4],"inconclusive [cytotoxic, partial curve, poor fit]"
same,Potency,[12],"inconclusive [cytotoxic, partial curve, poor fit]"
same,Potency,[2],"inconclusive [rising, partial curve]"
same,Potency,[15],"inconclusive [rising, partial curve, poor fit]"
same,Potency,[14],inactive
same,Potency,[3],inactive
